These are yes or no findings as the source states them, for the method shown. Binding seen in cells or lysates may run through a third protein. Some results given as binding are weak or reduced against the parent protein; the word gives no strength.
Molecular target: HA-tagged wild-type ELL2 (human) (UniProt O00472)
Assay: co-IP

Chains of the proteins cited; added tags and fusions are not shown.
UniProt O00472: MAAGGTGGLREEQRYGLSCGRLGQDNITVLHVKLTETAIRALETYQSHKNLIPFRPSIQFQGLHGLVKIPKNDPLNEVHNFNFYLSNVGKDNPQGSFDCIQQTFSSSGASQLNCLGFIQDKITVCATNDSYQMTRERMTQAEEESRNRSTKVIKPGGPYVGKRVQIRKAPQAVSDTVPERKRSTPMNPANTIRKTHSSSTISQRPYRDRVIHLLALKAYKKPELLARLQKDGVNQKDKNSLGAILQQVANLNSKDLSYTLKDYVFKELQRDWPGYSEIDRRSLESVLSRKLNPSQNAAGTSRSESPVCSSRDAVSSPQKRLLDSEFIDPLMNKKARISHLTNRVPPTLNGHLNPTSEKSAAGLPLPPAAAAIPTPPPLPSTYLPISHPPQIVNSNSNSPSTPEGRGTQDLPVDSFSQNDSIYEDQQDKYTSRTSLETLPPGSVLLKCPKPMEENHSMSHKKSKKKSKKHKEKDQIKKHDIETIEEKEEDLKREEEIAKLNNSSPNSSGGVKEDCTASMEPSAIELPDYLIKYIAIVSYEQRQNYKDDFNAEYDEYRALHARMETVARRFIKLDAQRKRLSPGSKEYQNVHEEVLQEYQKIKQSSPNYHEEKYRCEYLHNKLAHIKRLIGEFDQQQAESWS

binding: binds
B1: AFF1, endogenous (protein, UniProt P51825 1-1210)
chain: MAAQSSLYNDDRNLLRIREKERRNQEAHQEKEAFPEKIPLFGEPYKTAKGDELSSRIQNMLGNYEEVKEFLSTKSHTHRLDASENRLGKPKYPLIPDKGSSIPSSSFHTSVHHQSIHTPASGPLSVGNISHNPKMAQPRTEPMPSLHAKSCGPPDSQHLTQDRLGQEGFGSSHHKKGDRRADGDHCASVTDSAPERELSPLISLPSPVPPLSPIHSNQQTLPRTQGSSKVHGSSNNSKGYCPAKSPKDLAVKVHDKETPQDSLVAPAQPPSQTFPPPSLPSKSVAMQQKPTAYVRPMDGQDQAPSESPELKPLPEDYRQQTFEKTDLKVPAKAKLTKLKMPSQSVEQTYSNEVHCVEEILKEMTHSWPPPLTAIHTPSTAEPSKFPFPTKDSQHVSSVTQNQKQYDTSSKTHSNSQQGTSSMLEDDLQLSDSEDSDSEQTPEKPPSSSAPPSAPQSLPEPVASAHSSSAESESTSDSDSSSDSESESSSSDSEENEPLETPAPEPEPPTTNKWQLDNWLTKVSQPAAPPEGPRSTEPPRRHPESKGSSDSATSQEHSESKDPPPKSSSKAPRAPPEAPHPGKRSCQKSPAQQEPPQRQTVGTKQPKKPVKASARAGSRTSLQGEREPGLLPYGSRDQTSKDKPKVKTKGRPRAAASNEPKPAVPPSSEKKKHKSSLPAPSKALSGPEPAKDNVEDRTPEHFALVPLTESQGPPHSGSGSRTSGCRQAVVVQEDSRKDRLPLPLRDTKLLSPLRDTPPPQSLMVKITLDLLSRIPQPPGKGSRQRKAEDKQPPAGKKHSSEKRSSDSSSKLAKKRKGEAERDCDNKKIRLEKEIKSQSSSSSSSHKESSKTKPSRPSSQSSKKEMLPPPPVSSSSQKPAKPALKRSRREADTCGQDPPKSASSTKSNHKDSSIPKQRRVEGKGSRSSSEHKGSSGDTANPFPVPSLPNGNSKPGKPQVKFDKQQADLHMREAKKMKQKAELMTDRVGKAFKYLEAVLSFIECGIATESESQSSKSAYSVYSETVDLIKFIMSLKSFSDATAPTQEKIFAVLCMRCQSILNMAMFRCKKDIAIKYSRTLNKHFESSSKVAQAPSPCIASTGTPSPLSPMPSPASSVGSQSSAGSVGSSGVAATISTPVTIQNMTSSYVTITSHVLTAFDLWEQAEALTRKNKEFFARLSTNVCTLALNSSLVDLVHYTRQGFQQLQELTKTP
